Laboratory results as given in the supplement of paper PMC10369915.
This is one part of the list. Rule as the data show it: active = 3.2 or more and inactive = the rest. The signal is at background level for most entries.

B1: SCN5A_Y1494_E1489D (peptide)
chain: DEQKKYYNAMK
B2: SCN5A_Y1494_K1493R (peptide)
chain: EEQKRYYNAMK
B3: SCN5A_Y1494_M1498T (peptide)
chain: EEQKKYYNATK
B4: SCN5A_Y1494_M1498V_YF (peptide)
chain: EEQKKYFNAVK
B5: SCN5A_Y1494_Y1494N (peptide)
chain: EEQKKNYNAMK
B6: SCN5A_Y1494_Y1495S (peptide)
chain: EEQKKYSNAMK
B7: SCN5A_Y1495 (peptide)
chain: EQKKYYNAMKK
B8: SCN5A_Y1495_K1493R (peptide)
chain: EQKRYYNAMKK
B9: SCN5A_Y1495_K1493R_YF (peptide)
chain: EQKRFYNAMKK
B10: SCN5A_Y1495_M1498T_YF (peptide)
chain: EQKKFYNATKK
B11: SCN5A_Y1495_M1498V_YF (peptide)
chain: EQKKFYNAVKK
B12: SCN5A_Y1495_Y1495S (peptide)
chain: EQKKYSNAMKK
B13: SCN5A_Y1495_YF (peptide)
chain: EQKKFYNAMKK
B14: SCN5A_Y694 (peptide)
chain: RLAQRYLIWEC
B15: SCN5A_Y694_Q692K (peptide)
chain: RLAKRYLIWEC
B16: SCN5A_Y694_R689H (peptide)
chain: HLAQRYLIWEC
B17: SCO1_Y60 (peptide)
chain: SGRPGYCLGTR
B18: SCO1_Y60_P58S (peptide)
chain: SGRSGYCLGTR

These binders were tested against SHP2 C-SH2 domain E139D (assay: enrichment score (SH2-bound / input frequency) (ratio); bacterial display of known human phosphotyrosine sites (pTyr-Var adds point mutants) read by sequencing; higher = stronger binding; tyrosines were phosphorylated by kinases first). Conditions: peptide library: pTyr-Var.
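Also: displayed peptides selected on beads carrying the immobilized SH2 domain, with library peptides lacking any tyrosine serving as negative controls.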

Enrichment score, inactive:
B1 0.663
B2 0.687
B3 0.438
B4 0.802
B5 0.736
B6 0.55
B7 1.4
B8 1.2
B9 1.29
B10 0.671
B11 1.05
B12 0.902
B13 1.16
B14 1.23
B15 0.573
B16 1.29
B17 0.773
B18 0.98

What follows are binders tested against SHP2 C-SH2 domain wild-type in the same assay as above. Conditions: peptide library: pTyr-Var.

Enrichment score, inactive:
B1 0.554
B2 0.512
B3 0.52
B4 0.841
B5 0.605
B6 0.691
B7 1.89
B8 1.05
B9 1.21
B10 0.802
B11 0.824
B12 0.912
B13 1.06
B14 1.26
B15 0.739
B16 1.7
B17 1.04
B18 0.789

What follows are binders tested against SHP2 N-SH2 domain L43F in the same assay as above. Conditions: peptide library: pTyr-Var.

Enrichment score, inactive:
B1 0.536
B2 0.594
B3 0.294
B4 0.664
B5 0.608
B6 0.701
B7 1.69
B8 1.14
B9 1.06
B10 0.543
B11 0.675
B12 0.942
B13 0.949
B14 1.07
B15 0.524
B16 1.11
B17 0.875
B18 0.873

The binders below were run against SHP2 N-SH2 domain T42A in the same assay as above. Conditions: peptide library: pTyr-Var.

Enrichment score, inactive:
B1 0.54
B2 0.547
B3 0.38
B4 0.848
B5 0.53
B6 0.441
B7 1.53
B8 1.12
B9 1.11
B10 0.654
B11 0.714
B12 0.59
B13 0.943
B14 1
B15 0.72
B16 1.05
B17 0.762
B18 0.805

These binders were tested against SHP2 N-SH2 domain T52S in the same assay as above. Conditions: peptide library: pTyr-Var.

Enrichment score, inactive:
B1 0.603
B2 0.659
B3 0.642
B4 0.802
B5 0.665
B6 0.457
B7 1.59
B8 0.897
B9 1.14
B10 0.577
B11 0.885
B12 0.826
B13 0.936
B14 1.26
B15 0.557
B16 1.02
B17 0.933
B18 1.05

The binders below were run against SHP2 N-SH2 domain wild-type in the same assay as above. Conditions: peptide library: pTyr-Var.

Enrichment score, inactive:
B1 0.658
B2 0.589
B3 0.584
B4 0.873
B5 0.776
B6 0.806
B7 1.65
B8 1.27
B9 1.31
B10 0.936
B11 0.708
B12 1.09
B13 1.12
B14 1.16
B15 0.681
B16 1.65
B17 1.06
B18 0.928
